Measurements taken from the supplement of paper PMC8728848.
This is one part of the list.

What was measured:
Experiment in all cases: glycan array binding signal (z-score within array); higher = stronger binding
Conditions in all cases: glycan notation: IUPAC condensed, linker removed
[1] = biological target: Neu5Ac(a2-3)Gal(b1-4)GlcNAc(b1-3)[Neu5Ac(a2-3)Gal(b1-4)GlcNAc(b1-6)]GalNAc
How it was run: (§1)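 Glycan array data came from 3228 arrays in the Consortium for Functional Glycomics database, and only arrays with an available protein sequence were kept. Glycan names were put into IUPAC-condensed notation, and columns mapping to the same glycan were averaged. The binding signal is a within-array Z-score, averaged across arrays of one protein sequence run at different concentrations or buffers and across linkers. A negative Z-score can be read as non-binding.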

[2] = biological target: Neu5Ac(a2-3)Gal(b1-4)GlcNAc(b1-6)GalNAc
How it was run: as §1

[3] = biological target: Neu5Ac(a2-3)Gal(b1-4)GlcNAc(b1-6)[Gal(b1-3)]GalNAc
How it was run: as §1

[4] = biological target: Neu5Ac(a2-3)Gal(b1-4)GlcNAc(b1-6)[Neu5Ac(a2-3)Gal(b1-3)]GalNAc
How it was run: as §1

[5] = biological target: Neu5Ac(a2-3)Gal(b1-4)GlcNAc6S
How it was run: as §1

[6] = biological target: Neu5Ac(a2-3)Gal(b1-4)[Fuc(a1-3)]GlcNAc
How it was run: as §1

[7] = biological target: Neu5Ac(a2-3)Gal(b1-4)[Fuc(a1-3)]GlcNAc(b1-2)Man
How it was run: as §1

[8] = biological target: Neu5Ac(a2-3)Gal(b1-4)[Fuc(a1-3)]GlcNAc(b1-3)Gal
How it was run: as §1

[9] = biological target: Neu5Ac(a2-3)Gal(b1-4)[Fuc(a1-3)]GlcNAc(b1-3)Gal(b1-4)GlcNAc
How it was run: as §1

[10] = biological target: Neu5Ac(a2-3)Gal(b1-4)[Fuc(a1-3)]GlcNAc(b1-3)Gal(b1-4)[Fuc(a1-3)]GlcNAc(b1-3)Gal(b1-4)[Fuc(a1-3)]GlcNAc
How it was run: as §1

[11] = biological target: Neu5Ac(a2-3)Gal(b1-4)[Fuc(a1-3)]GlcNAc(b1-3)GalNAc
How it was run: as §1

[12] = biological target: Neu5Ac(a2-3)Gal(b1-4)[Fuc(a1-3)]GlcNAc(b1-6)[Gal(b1-3)]GalNAc
How it was run: as §1

[13] = biological target: Neu5Ac(a2-3)Gal(b1-4)[Fuc(a1-3)]GlcNAc(b1-6)[Neu5Ac(a2-3)Gal(b1-3)]GalNAc
How it was run: as §1

[14] = biological target: Neu5Ac(a2-3)Gal(b1-4)[Fuc(a1-3)]GlcNAc6S
How it was run: as §1

[15] = biological target: Neu5Ac(a2-3)Gal6S(b1-4)GlcNAc
How it was run: as §1

[16] = biological target: Neu5Ac(a2-3)Gal6S(b1-4)[Fuc(a1-3)]GlcNAc
How it was run: as §1

Neu5Ac(a2-3)GalNAc = biological target: Neu5Ac(a2-3)GalNAc
How it was run: as §1

[17] = biological target: Neu5Ac(a2-3)GalNAc(b1-4)GlcNAc
How it was run: as §1

[18] = biological target: Neu5Ac(a2-3)[GalNAc(b1-4)]Gal(b1-4)Glc
How it was run: as §1

[19] = biological target: Neu5Ac(a2-3)[GalNAc(b1-4)]Gal(b1-4)GlcNAc
How it was run: as §1

[20] = biological target: Neu5Ac(a2-3)[GalNAc(b1-4)]Gal(b1-4)GlcNAc(b1-3)GalNAc
How it was run: as §1

[21] = biological target: Neu5Ac(a2-3)[Neu5Ac(a2-6)]GalNAc
How it was run: as §1

Neu5Ac(a2-6)Gal = biological target: Neu5Ac(a2-6)Gal
How it was run: as §1

[22] = biological target: Neu5Ac(a2-6)Gal(b1-3)GlcNAc(b1-3)[Gal(b1-4)GlcNAc(b1-6)]Gal(b1-4)Glc
How it was run: as §1

Neu5Ac(a2-6)Gal(b1-4)Glc = biological target: Neu5Ac(a2-6)Gal(b1-4)Glc
How it was run: as §1

[23] = biological target: Neu5Ac(a2-6)Gal(b1-4)GlcNAc
How it was run: as §1

[24] = biological target: Neu5Ac(a2-6)Gal(b1-4)GlcNAc(b1-2)Man
How it was run: as §1

[25] = biological target: Neu5Ac(a2-6)Gal(b1-4)GlcNAc(b1-2)Man(a1-3)Man(b1-4)GlcNAc(b1-4)GlcNAc
How it was run: as §1

[26] = biological target: Neu5Ac(a2-6)Gal(b1-4)GlcNAc(b1-2)Man(a1-3)[Gal(b1-4)GlcNAc(b1-2)Man(a1-6)]Man(b1-4)GlcNAc(b1-4)GlcNAc
How it was run: as §1

[27] = biological target: Neu5Ac(a2-6)Gal(b1-4)GlcNAc(b1-2)Man(a1-3)[GlcNAc(b1-2)Man(a1-6)]Man(b1-4)GlcNAc(b1-4)GlcNAc
How it was run: as §1

[28] = biological target: Neu5Ac(a2-6)Gal(b1-4)GlcNAc(b1-2)Man(a1-3)[GlcNAc(b1-4)][Neu5Ac(a2-6)Gal(b1-4)GlcNAc(b1-2)Man(a1-6)]Man(b1-4)GlcNAc(b1-4)GlcNAc
How it was run: as §1

B1: Epa6 (Candida glabrata), Q6DTM7_CANGB (protein)
chain: MGSSHHHHHHSSGLVPRGSHMKDDYSSSLSNNNLGWTDPTEFPLGCSPNVTTPKNGLSMELYSYDYLKSGSNPCWDAAYLDPNYPRTGYKSHRLLAKVENVAGNINFYYHAPMGCTSLFDTLPQAYNYRTPLTMTNFTMLLYGYFKPKVTGYHTFTISADDLLFVNFGAGNAFDCCKRESSADDFGNYQAYAVWGSQTAKDDLTVHLDAGLYYPIRIFFNNRDNDGALSLTLKTESDPNPVIDFSDYFYSFDDTKDGCPGLVSYDTS
- glycan array binding signal (z-score) [1]: -0.314
- glycan array binding signal (z-score) [2]: -0.299
- glycan array binding signal (z-score) [3]: 0.321
- glycan array binding signal (z-score) [4]: -0.312
- glycan array binding signal (z-score) [5]: -0.347
- glycan array binding signal (z-score) [6]: -0.32
- glycan array binding signal (z-score) [7]: -0.243
- glycan array binding signal (z-score) [8]: -0.328
- glycan array binding signal (z-score) [9]: -0.172
- glycan array binding signal (z-score) [10]: -0.33
- glycan array binding signal (z-score) [11]: 0.035
- glycan array binding signal (z-score) [12]: 0.011
- glycan array binding signal (z-score) [13]: -0.17
- glycan array binding signal (z-score) [14]: -0.347
- glycan array binding signal (z-score) [15]: -0.333
- glycan array binding signal (z-score) [16]: -0.289
- glycan array binding signal (z-score) (Neu5Ac(a2-3)GalNAc): -0.337
- glycan array binding signal (z-score) [17]: -0.273
- glycan array binding signal (z-score) [18]: -0.292
- glycan array binding signal (z-score) [19]: -0.3
- glycan array binding signal (z-score) [20]: -0.263
- glycan array binding signal (z-score) [21]: -0.339
- glycan array binding signal (z-score) (Neu5Ac(a2-6)Gal): -0.232
- glycan array binding signal (z-score) [22]: -0.278
- glycan array binding signal (z-score) (Neu5Ac(a2-6)Gal(b1-4)Glc): -0.313
- glycan array binding signal (z-score) [23]: -0.314
- glycan array binding signal (z-score) [24]: -0.338
- glycan array binding signal (z-score) [25]: -0.325
- glycan array binding signal (z-score) [26]: -0.301
- glycan array binding signal (z-score) [27]: -0.338
- glycan array binding signal (z-score) [28]: -0.314
